Our source for the z-score values is PubChem BioAssay AID488969 (Vanderbilt High Throughput Screening Facility, 2010).

Whole data set: some 110,000 compounds, median “z-score” near -0.1, cut for the highest 2% near 2. The list shows a part of the results. Calls of active or inactive are those of the source.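 The calls were made as follows: active = z-score in the third read window above 3 or below -3; inactive = the rest.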

This assay has as its target Metabotropic glutamate receptor 8 (Rattus norvegicus) (UniProt P70579). The experiment in a line: rat mGluR8 modulators via GIRK flux, primary screen, cell-based, thallium flux, HTS (AID 488969). Particulars: HEK293 rat mGluR8, GIRK (G protein-gated inwardly rectifying potassium channel) thallium flux, FluoZin2; at 10 µM; stronger effect = higher value; submaximal glutamate (EC20) added with thallium.
UniProt P70579, sequence (P70579 whole entry, looked up): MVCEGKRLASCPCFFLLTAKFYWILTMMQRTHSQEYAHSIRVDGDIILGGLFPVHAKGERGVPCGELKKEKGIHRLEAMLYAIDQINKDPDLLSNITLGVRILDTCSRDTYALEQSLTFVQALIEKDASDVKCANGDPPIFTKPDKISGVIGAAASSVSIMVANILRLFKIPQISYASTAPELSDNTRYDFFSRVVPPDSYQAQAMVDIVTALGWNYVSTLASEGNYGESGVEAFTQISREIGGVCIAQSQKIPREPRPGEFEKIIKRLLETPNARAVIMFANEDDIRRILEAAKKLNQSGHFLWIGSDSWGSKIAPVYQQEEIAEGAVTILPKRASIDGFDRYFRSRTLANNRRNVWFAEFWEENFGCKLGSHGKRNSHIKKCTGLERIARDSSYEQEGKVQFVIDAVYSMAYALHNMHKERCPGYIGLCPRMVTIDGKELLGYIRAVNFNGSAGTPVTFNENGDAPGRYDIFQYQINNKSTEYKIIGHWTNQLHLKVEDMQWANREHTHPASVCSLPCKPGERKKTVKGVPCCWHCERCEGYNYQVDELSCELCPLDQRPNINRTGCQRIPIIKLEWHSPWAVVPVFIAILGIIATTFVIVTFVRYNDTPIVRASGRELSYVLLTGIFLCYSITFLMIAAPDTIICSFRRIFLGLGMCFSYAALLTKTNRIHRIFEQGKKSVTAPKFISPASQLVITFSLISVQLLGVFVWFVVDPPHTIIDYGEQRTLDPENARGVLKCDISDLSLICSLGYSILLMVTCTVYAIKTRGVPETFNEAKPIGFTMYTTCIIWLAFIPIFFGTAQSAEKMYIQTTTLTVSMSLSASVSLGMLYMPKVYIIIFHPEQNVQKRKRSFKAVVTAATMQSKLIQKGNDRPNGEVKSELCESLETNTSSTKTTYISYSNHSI
`O=C(/C=C/c1ncc(C(F)(F)F)cc1Cl)OCc1ccccc1` displayed a z-score of -0.0986.

Turning to `Cn1cnnc1SCC(=O)NCc1cccc(C(F)(F)F)c1`, the z-score was found to be 0.0117.

`COc1cc(/C=C/c2nc(N)nc(-c3ccccc3O)n2)cc(OC)c1OC` returned a z-score of -0.115.

As for `Cc1cc(OCC(O)CN2CCN(CCO)CC2)ccc1C(C)C` (stereo not given), the z-score is -0.0316.

The compound `COc1cc(C(=S)N2CCOCC2)ccc1OS(=O)(=O)c1ccc(NC(C)=O)cc1` returned a z-score of -0.421.

Compound `O=[N+]([O-])c1ccc(S(=O)(=O)N/N=C/c2cccs2)cc1` yielded a z-score of -0.273.

Turning to `C/C(=N\NC(=O)Nc1ccccc1)c1ccc2ccccc2c1`, the z-score was -0.112.

Compound `CCCNC(=O)NC(=O)COC(=O)c1cccc(NS(=O)(=O)c2ccc(F)c(F)c2)c1` had a z-score of 0.299.

As for `Clc1cc2nc3ccccn3c2cc1Cl`, the z-score came to 1.18.

`Cc1cccc(N2CCN(C(c3cccs3)c3nnnn3C(C)(C)C)CC2)c1C` (stereo not given) displayed a z-score of 0.0116.

On to `Cc1nnc2sc(-c3ccc(NC(=O)c4ccc(-c5ccc(Br)cc5)o4)cc3)nn12`, for which the z-score stood at 0.0525.

The compound `Cn1c(CCNC(=O)c2ccc(Cl)c(Cl)c2)nnc1SCc1ccc(Cl)c(Cl)c1` registered a z-score of -0.0689.

Compound `CCOC(=O)c1sc(NC(=O)CCCCl)nc1C` came in with a z-score of -0.167.

In turn, `CCC1(CC)C(=O)NC(=O)NC1=Nc1cccc(OC)c1` came in with a z-score of -0.0162.

`COc1ccc(CCC(=O)Nc2nc3ccccc3[nH]2)cc1`: the z-score was -0.509.

`COc1ccc(C(=O)NNC(=S)NC(=O)c2ccccc2[N+](=O)[O-])cc1`: the z-score was -0.094.

As for `Cc1cc(C)cc(NC(=O)c2cccn2-c2ncc(C(F)(F)F)cc2Cl)c1`, the z-score was -0.28.

The compound `CCCCOP(=O)(OCCCC)C(Nc1ccccc1)c1ccc2c(c1)OCO2` (stereo not given) registered a z-score of 0.0364.

For `C=CCSc1nc(C)c2cc(C)cc(C)c2n1`, the z-score is -0.597.

In turn, `CCc1c(C)nc2ncnn2c1NCCc1ccc(OC)cc1` displayed a z-score of -0.254.

For `c1ccc2c(Cn3ccnc3)c[nH]c2c1`, the z-score was -0.416.

The compound `O=C(c1ccccc1)N1CCc2ccccc21` registered a z-score of 0.518.

For the compound `Cc1cc(C)cc(-n2nnnc2SCC(=O)Nc2nc(-c3ccc(F)cc3)cs2)c1`, the z-score was -0.233.

On to `O=C(O)C1CC=CCC1C(=O)NCc1ccc2c(c1)OCO2` (stereo not given), for which the z-score was -0.618.

Take `N#Cc1ccc(NC(=O)CN2C(=O)NC(Cc3ccccc3)C2=O)cc1` (stereo not given): the z-score was -0.0901.

For `CC1(C)Cc2c(sc3nc(-c4ccccc4)n(N)c(=O)c23)CO1`, the z-score turned out to be 0.829.

Take `O=C(c1cnc2n(c1=O)CCS2)N1CCN(C(c2ccccc2)c2ccc(Cl)cc2)CC1` (stereo not given): the z-score is -0.611.

Take `Cc1csc(=NC(=O)c2ccccc2)n1CCO`: the z-score was -0.216.

As to `CC12CCC(C(=O)N(CSC(=S)N/N=C\c3ccccc3)C1=O)C2(C)C` (stereo not given), the z-score was active: 16.4.

`CCCc1cc(C(=O)Nc2sc3c(c2C#N)CCC3)no1`: the z-score worked out at 2.21.

Consider `CCN(CC(=O)NC(C)C)C(=O)C(CCSC)NC(=O)c1cccc(C)c1` (stereo not given), for which the z-score was -0.0113.

Turning to `O=C(NCCN1C(=O)S/C(=C\c2ccc(F)cc2)C1=O)c1cccc(S(=O)(=O)N2CCOCC2)c1`, the z-score is -0.00437.

The compound `Cc1ccccc1OCC(=O)Nc1cccc2nsnc12` displayed a z-score of 0.348.

In turn, `Cc1ccc(C(=O)NNC(=S)Nc2cccc3ccccc23)s1` gave a z-score of 1.65.

In the case of `Cc1ccc(NC(=O)CSCC(=O)N2CCOCC2)cc1`, the z-score stood at 0.116.

`COc1ccc(Cl)cc1-c1nc(N)nc(N(C)C)n1` had a z-score of -0.0414.

The compound `Clc1ccc(-c2nc3ccccc3nc2-c2ccccc2)cc1` displayed a z-score of -1.47.

For `O=C(Cc1ccc([N+](=O)[O-])cc1)N1CCN=C1SCc1ccccc1`, the z-score is -0.118.

Compound `COc1ccc(C(CCN(Cc2ccc(OC)c(OC)c2)C(C)=O)c2ccccc2)cc1` (stereo not given) yielded a z-score of -0.175.

`Cc1nn(-c2ncc(C(F)(F)F)cc2Cl)c(=O)n1-c1ccccc1Cl`: the z-score is -0.751.

In the case of `CCOC(=O)c1c(NC(=O)COc2ncnc3sccc23)sc2c1CCC2`, the z-score is -0.175.

Regarding `Cc1cc(Br)ccc1OCC(=O)N(Cc1nc(-c2ccccc2)no1)C(C)C`, the z-score was 0.16.

In the case of `Cc1nn(CCC(N)=O)c2nc(-c3cccs3)cc(C(F)(F)F)c12`, the z-score is -0.283.

For `Cc1ccc(-n2c(Cc3cccn3C)nnc2SCC(=O)N2CCN(c3ccccc3)CC2)cc1`, the z-score was -0.835.

As for `CCN(C(=O)CSc1nc2cc(C(F)(F)F)ccc2n1Cc1ccccc1)C1CCS(=O)(=O)C1` (stereo not given), the z-score is -0.724.

The compound `O=C(O)c1cc(Nc2nc(N3CCOCC3)nc(N3CCOCC3)n2)ccc1Cl` returned a z-score of -0.694.

Consider `CCCC1=C(C(=O)OCC)C(/C=C/c2ccccc2)n2ncnc2N1` (stereo not given), for which the z-score is -0.104.

`CCOC(=O)c1c(N)sc2c1CCC(CC)C2` (stereo not given): the z-score was 0.0842.

Take `CCOc1ccc(NC(=O)CN(c2cccc(C(F)(F)F)c2)S(C)(=O)=O)cc1`: the z-score turned out to be 1.26.

`CC[n+]1c(S(=O)(=O)[O-])ccc2ccc(C)cc21` returned a z-score of -0.0122.

As for `COc1cc(C(=O)Nc2ccc3c(c2)OCCO3)c(-n2cnnn2)cc1OC`, the z-score was -0.262.

In turn, `Nc1ccc(Oc2ccc3nc(-c4ccccc4)c(-c4ccc([N+](=O)[O-])cc4)nc3c2)cc1` had a z-score of 0.524.

With `CCN(CC)S(=O)(=O)c1ccc2nc(COC(=O)c3n[nH]c4ccccc34)[nH]c2c1`, the z-score was -0.13.

In the case of `COc1ccc(OC)c(S(=O)(=O)NCc2cn3c(C)csc3n2)c1`, the z-score is -0.389.

On to `COc1ccc(N=C2SC(C(N)=O)CC(=O)N2CCc2ccc(OC)c(OC)c2)cc1` (stereo not given), for which the z-score was -0.154.

`Nc1nonc1C(=O)NCCNS(=O)(=O)c1ccc(Br)cc1` came in with a z-score of 0.00497.

In the case of `COc1cccc(-n2sc3c(c2=S)-c2cc(OC)ccc2NC3(C)C)c1`, the z-score is -0.0597.

In the case of `Cc1cc(C)cc(NC(=O)c2cccc(NC(=O)C3C4CC5OC(=O)C3C5C4)c2)c1` (stereo not given), the z-score was -0.409.

Regarding `Cc1cc(C2(c3ccc(O)c(C)c3)C(=O)Nc3ccccc32)ccc1O`, the z-score is -0.184.

Consider `O=C1c2ccccc2NC(c2ccco2)N1O` (stereo not given), for which the z-score is -0.422.

As for `Cc1cccc(C)c1NC(=O)COC(=O)c1cccc2c1C(=O)c1ccccc1C2=O`, the z-score was 0.188.

As to `O=C(NN1C(=O)c2ccccc2C1=O)C1C2CCCCC21` (stereo not given), the z-score was -0.161.

`O=C(CSc1nnc(NC(=O)c2ccco2)s1)NC1CCCC1` had a z-score of -0.136.

On to `O=C1C=C(NCc2ccncc2)CC(c2ccccc2)C1` (stereo not given), for which the z-score was -0.117.

On to `O=S(=O)(c1cccc(-c2nc3ccccc3s2)c1)N1CCOCC1`, for which the z-score was -0.153.

Take `c1ccc(CSCc2cn3ccsc3n2)cc1`: the z-score was -0.197.

With `Cc1nc(NCCc2ccc(S(N)(=O)=O)cc2)c2c3c(sc2n1)CCC3`, the z-score was -0.34.

In turn, `CCCCn1nc2cc(C(=O)NC[C@@H]3CCCO3)ccc2c1OCC` gave a z-score of -0.052.

The compound `NC(=O)c1c(-c2cccs2)csc1N` registered a z-score of -0.161.

In turn, `Cc1onc(-c2ccccc2)c1C(=O)N1CCN(C(=O)c2ccco2)CC1` displayed a z-score of 0.214.

For the compound `O=C(NC(NCc1ccccn1)(C(F)(F)F)C(F)(F)F)c1ccco1`, the z-score is -0.08.

`O=C(CSc1nnc(-c2ccc(F)cc2)c2ccccc12)Nc1ccccc1Cl` registered a z-score of -0.422.

For the compound `Clc1ccc(CSc2nnc(CN3CCOCC3)n2-c2ccccc2)cc1Cl`, the z-score is 0.963.

Turning to `COC(=O)CN(c1nc(C)c(Br)c(OC)n1)S(=O)(=O)c1ccc(C)cc1`, the z-score is 0.0294.

On to `C=CCn1c(=O)c2c(C)c(C)sc2n2c(Nc3ccc(OC)cc3)nnc12`, for which the z-score is active: -3.68.

For `COc1ccc2c(c1)c(C(=O)CN1CCC(C(N)=O)CC1)c(C)n2C`, the z-score is -0.152.

In turn, `Cc1ccc(S(=O)(=O)NNC(=O)c2sc3nc(C)cc(C)c3c2-n2cccc2)cc1` displayed a z-score of -0.555.

Regarding `COC(=O)c1ccc(Sc2ccc(Cl)cc2)c(N)c1`, the z-score was found to be 0.192.

In the case of `CCOC(=O)c1c(C)[nH]c(C(=O)CSc2nnnn2-c2ccc(C)cc2)c1C`, the z-score is -1.6.

As to `O=C(COC(=O)CC(NC(=O)c1ccccc1Cl)c1ccccc1)Nc1cccc(F)c1` (stereo not given), the z-score was determined as 0.435.

Compound `Cc1cc(OC(C)C(=O)N/N=C/CC(C)c2ccccc2)ccc1Cl` (stereo not given) registered a z-score of 0.358.

For `COc1ccc(S(=O)(=O)Nc2ccc3c(c2)OCCO3)cc1Cl`, the z-score was determined as 0.438.

Regarding `O=S(=O)(NCc1ccc2c(c1)OCO2)c1ccc2c(c1)oc1ccccc12`, the z-score was 0.0903.

Consider `Cc1c(Cl)c(C(=O)NC2CCCC2)nn1C`, for which the z-score was -0.302.

Take `COc1ccccc1Oc1nc(-c2ccccc2)cc(C)c1S(C)(=O)=O`: the z-score is -0.257.

Turning to `CCCc1cc(-c2n[nH]c(=S)n2CC)c2ccccc2n1`, the z-score is -0.443.

With `CCCCn1c(=S)[nH]c2c(oc3ccc(Cl)cc32)c1=O`, the z-score was active: 13.1.

As to `COC(=O)CCCCC1SCC2NC(=O)NC21O` (stereo not given), the z-score worked out at 0.189.

`COC(=O)C1C(=O)NCC1c1ccc(C)cc1` (stereo not given) returned a z-score of 0.227.

In turn, `CCCCC(=O)NC(NC(=S)N1CCOCC1)C(Cl)(Cl)Cl` (stereo not given) gave a z-score of 0.487.

The compound `CCc1ccc(NC(=O)CCn2c(=O)oc3ccccc32)cc1` showed a z-score of 0.0251.

In turn, `O=C(CN1C(=O)c2cccc3cccc1c23)N1CCN(c2cccc(Cl)c2)CC1` gave a z-score of -0.225.

Take `Cc1ccc(-c2nc3ccccc3o2)cc1NC(=O)Cc1cccs1`: the z-score is -0.149.

For `O=C(NNC(=O)c1cc2cc3ccccc3nc2s1)c1ccc(F)cc1`, the z-score worked out at 0.133.

The compound `CCCNc1c(NC(C)=O)c(=O)oc2ccccc12` returned a z-score of -0.104.

As for `O=S(=O)(c1ccc(F)cc1)N1CN(Cc2ccco2)c2nc3ccccc3nc21`, the z-score is -1.23.

With `CCc1nc2c(c(=O)c3ccccc3n2C)c(=O)n1-c1ccc(F)cc1`, the z-score is -0.613.

On to `Cc1cc(-c2n[nH]c(=S)n2/N=C/c2cc([N+](=O)[O-])ccc2Cl)n[nH]1`, for which the z-score is -0.544.

Compound `Cc1ccc(-c2nn(-c3ccccc3)cc2/C=C/C(=O)Nc2nccs2)cc1` registered a z-score of -0.147.

Turning to `Cc1ccc(O)c(C(=O)c2coc(=N)c(C(=O)NC(C)C)c2)c1`, the z-score amounted to 0.409.

In turn, `O=C(CCc1ccccc1)Nc1ccc(N2CCOCC2)c(Cl)c1` displayed a z-score of -0.292.

The compound `O=C(CN(CC1CCCO1)C(=O)CCC(=O)Nc1ccccn1)NCc1ccccc1` (stereo not given) showed a z-score of -0.09.

For `COc1ccc(C(c2c(NC(=O)c3ccccc3)sc(C)c2C)N2CCN(CCO)CC2)cc1` (stereo not given), the z-score was determined as 0.286.

`Cc1ccccc1Nc1c(N)c(=O)oc2ccccc12` yielded a z-score of -0.416.

Take `Cc1ccc(CO/N=C/C2=C(Cl)c3ccccc3CC2)cc1`: the z-score amounted to 0.558.

`CCCCN1C(=O)c2ccc(C(=O)Nc3ccc(C)c(S(=O)(=O)N(C)C)c3)cc2C1=O`: the z-score amounted to 0.319.

`O=C1c2ccccc2C(Nc2ccc(F)cc2F)N1CCN1CCOCC1` (stereo not given) yielded a z-score of -0.157.

As for `CCSc1nc2nc(C)cc(C)n2n1`, the z-score was determined as 0.725.

With `CN1c2ccccc2C(C)(C)C12CCCC(=O)N2` (stereo not given), the z-score is -0.365.

On to `Cc1cccc(OCCOc2ccc(/C=N/NC(=O)Cc3nnc(N)s3)cc2)c1`, for which the z-score came to 0.371.
